A lower IC50 marks a more sensitive line; where the fit passes the top or lowest dose, that dose stands as a limit. AUC sums up the same curve from the lowest dose to the 256-fold higher top dose: 1 means no effect, lower means more sensitive. For some of these results: An inferred top dose comes from the curve model; the source does not state it. For some of these results: Where an entry number is given, a second screen of the drug exists; the two often differ.
What was measured:
Test in all cases: Viability of human cancer cell lines after 72 h of drug (GDSC screen)
Docetaxel = compound: CC(=O)O[C@@]12CO[C@@H]1C[C@H](O)[C@@]1(C)C(=O)[C@H](O)C3=C(C)[C@@H](OC(=O)[C@H](O)[C@@H](NC(=O)OC(C)(C)C)c4ccccc4)C[C@@](O)([C@@H](OC(=O)c4ccccc4)[C@H]21)C3(C)C [Docetaxel]; settings: top dose 0.0125 µM
Experimental: (§1)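 Human cancer cell lines in 384-well plates, medium with 10% serum, drug for 72 h over a 256-fold dose range (nine 2-fold or five 4-fold steps up to the top dose). Adherent lines were fixed and stained with the nucleic acid dye Syto60, suspension lines read with resazurin; signal relative to control wells, capped at 0 and 100%. One two-parameter sigmoid per drug and line, fitted in a mixed model over all curves with the slope shared within a line.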

AMG-706 = compound: CC1(C)CNc2cc(NC(=O)c3cccnc3NCc3ccncc3)ccc21 [AMG-706]; settings: top dose 2 µM; top dose inferred
Experimental: as §1

JNK Inhibitor VIII = compound: CCOc1nc(NC(=O)Cc2cc(OC)ccc2OC)cc(N)c1C#N [JNK Inhibitor VIII]; settings: top dose 10 µM; top dose inferred
Experimental: as §1

NSC-207895 = compound: CN1CCN(c2ccc([N+](=O)[O-])c3no[n+]([O-])c23)CC1 [NSC-207895]; settings: top dose 20 µM; top dose inferred
Experimental: as §1

FTI-277 = compound: COC(=O)[C@H](CCSC)NC(=O)c1ccc(NC[C@@H](N)CS)cc1-c1ccccc1 [FTI-277]; settings: top dose 1.024 µM; top dose inferred
Experimental: as §1

YM155 = compound: COCC[n+]1c2c(n(Cc3cnccn3)c1C)C(=O)c1ccccc1C2=O [YM155]; settings: top dose 5.12 µM
Experimental: as §1

OSI-906 = compound: C[C@]1(O)C[C@@H](c2nc(-c3ccc4ccc(-c5ccccc5)nc4c3)c3c(N)nccn32)C1 [OSI-906]; settings: top dose 2.56 µM; top dose inferred
Experimental: as §1

SB-715992 = compound: Cc1ccc(C(=O)N(CCCN)[C@@H](c2nc3cc(Cl)ccc3c(=O)n2Cc2ccccc2)C(C)C)cc1 [SB-715992]; settings: top dose 0.128 µM; top dose inferred
Experimental: as §1

JQ1 = compound: Cc1sc2c(c1C)C(c1ccc(Cl)cc1)=N[C@@H](CC(=O)OC(C)(C)C)c1nnc(C)n1-2 [JQ1]
Experimental: as §1

Belinostat = compound: O=C(/C=C/c1cccc(S(=O)(=O)Nc2ccccc2)c1)NO [Belinostat]; settings: top dose 20 µM; top dose inferred
Experimental: as §1

JNJ-26854165 = compound: c1ccc2c(CCNc3ccc(Nc4ccncc4)cc3)c[nH]c2c1 [JNJ-26854165]; settings: top dose 10 µM
Experimental: as §1

[1] = top dose 1 µM, screen: GDSC drug entry 1218, top dose inferred
[2] = top dose 2.56 µM, screen: GDSC drug entry 163

Cell Line	AUC (Docetaxel)	IC50 (Docetaxel) [nM]	AUC (AMG-706)	IC50 (AMG-706) [nM]	AUC (JNK Inhibitor VIII)	IC50 (JNK Inhibitor VIII) [nM]	AUC (NSC-207895)	IC50 (NSC-207895) [nM]	AUC (FTI-277)	IC50 (FTI-277) [nM]	AUC (YM155)	IC50 (YM155) [nM]	AUC (OSI-906)	IC50 (OSI-906) [nM]	AUC (SB-715992)	IC50 (SB-715992) [nM]	AUC (JQ1; [1])	IC50 (JQ1; [1]) [nM]	AUC (JQ1; [2])	IC50 (JQ1; [2]) [nM]	AUC (Belinostat)	IC50 (Belinostat) [nM]	AUC (JNJ-26854165)	IC50 (JNJ-26854165) [nM]
KYM-1 (rhabdomyosarcoma, adherent)	0.622	1.61	0.987	> 2000	0.987	> 10000	0.591	2130	0.988	> 1020	0.018	< 20	0.99	> 2560	0.923	> 128	0.952	> 1000	0.692	503	0.509	1320	0.824	4830
42-MG-BA (glioma, adherent)	0.56	1.15	0.894	> 2000	0.966	> 10000	0.985	> 20000	0.985	> 1020	0.029	< 20	0.983	> 2560	0.985	> 128	0.976	> 1000	0.837	1890	0.523	1450	0.802	5320
TT (thyroid, adherent)	0.941	> 12.5	0.894	> 2000	0.974	> 10000	0.979	> 20000	0.957	> 1020	0.172	20.4	0.981	> 2560	0.983	> 128	0.98	> 1000			0.958	> 20000	0.84	> 10000
G-361 (melanoma, adherent)	0.809	6.21	0.984	> 2000	0.988	> 10000	0.874	18100	0.988	> 1020	0.085	< 20	0.967	> 2560	0.869	110	0.987	> 1000	0.504	164	0.32	401	0.847	6890
HT-1080 (fibrosarcoma, adherent)	0.442	0.552	0.985	> 2000	0.989	> 10000	0.91	> 20000	0.952	> 1020	0.075	< 20	0.989	> 2560	0.976	> 128	0.981	> 1000	0.82	1270	0.539	1580	0.761	3200
T84 (large intestine, adherent)	0.952	> 12.5	0.988	> 2000	0.983	> 10000	0.884	> 20000	0.989	> 1020	0.235	53.8	0.732	744	0.904	> 128	0.987	> 1000	0.974	> 2560	0.523	1450	0.982	> 10000
